# Test results reported in PubChem BioAssay AID504706 (National Center for Advancing Translational Sciences (NCATS), 2011).
# Among all 320,000 compounds or so, about 200 (0.062%) were called active. The inconclusive results got no clear call from the source; some entries with a clear call stand among them for comparison. The call rests on the fitted dose curve; in most records, active means well fitted activation curve with a large enough effect; inconclusive means small, poorly fitted or top-dose-only effect; inactive means no such curve, though single readings can be large or run the other way. No potency is given beside an inconclusive call; the fits are too rough.
# Test: qHTS assay for re-activators of p53 using a Luc reporter; further: nearly all actives have a fitted effect of over 45% in size
# Details: H1299 p53-A138V BP100-luciferase reporter, luminescence, 24 h; series mostly up to 92.2 µM
# Outline: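 p53-null H1299 cells stably carrying temperature-sensitive p53-A138V and a BP100-luciferase reporter were pinned with compounds (4-point, 1:5 series) and held 24 hrs at 37 deg C. Luminescence was read 10 min after detection reagent.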
# Potency means the concentration at half of the fitted maximal effect; tags describe the fitted curve by direction and shape.
row,Compound,Potency
1,Cc1nnc(SCc2nc3ccccc3s2)n1-c1ccccc1,"inconclusive [activator, partial curve, poor fit]"
2,O=C(Nc1ccc(N2CCCC2)cc1)c1ccc2ccccc2c1,"inconclusive [activator, partial curve, poor fit]"
3,O=C(NCCCN1CCN(CCCNC(=O)c2ccc(F)cc2)CC1)c1ccc(F)cc1,"inconclusive [activator, single point]"
4,CCCc1ccc(OC(=O)c2cccs2)cc1,inactive
5,COc1ccc(C2CC(c3ccccc3)=NN2c2ccc(/C=N/NC(=O)c3ccncc3)cc2)cc1 (stereo not given),inactive
6,O=C(Nc1ccc(Br)cc1)N1CCCCCCC1,"inconclusive [activator, full curve, poor fit]"
7,CCOc1cc(C)c(C(C)C)cc1S(=O)(=O)n1cnc(C)c1,inactive
8,Cc1cc2c(cc1C)-c1nnnn1C(C)(C)C2,"inconclusive [activator, single point]"
9,COc1ccc(-c2csc(NC(=O)COC(=O)c3ccco3)n2)cc1,"inconclusive [activator, partial curve, poor fit]"
10,Cc1ccc(C(=O)Nc2nnc(-c3ccncc3)o2)cc1,inactive
11,CCN(CC)S(=O)(=O)c1cc(C(=O)Nc2ccccn2)ccc1C,"inconclusive [activator, partial curve, poor fit]"
12,Cn1c(-c2ccsc2)c(-c2cccs2)c2cc(Br)ccc21,"inconclusive [activator, single point]"
13,COCC(=O)Nc1nnc(C2CCCCC2)s1,"inconclusive [activator, partial curve, poor fit]"
14,CCOC(=O)c1cc(-c2ccc(Cl)s2)nc2c1c(C)nn2C,"inconclusive [activator, partial curve, poor fit]"
15,O=C(Cc1ccc2ccccc2c1)Nc1ccccc1Br,"inconclusive [activator, single point]"
16,COc1ccc(-c2noc(-c3ccccc3F)n2)cc1,"inconclusive [activator, full curve, poor fit]"
17,CS(=O)(=O)Nc1ccccc1C(=O)NC1CC2CCC1C2 (stereo not given),inactive
18,CCCCC(=O)Nc1ccc(N2CCN(C(=O)CC)CC2)cc1,"inconclusive [activator, single point]"
19,Cc1cccc(N2C(=O)SC(SC(=Nc3ccccc3)Nc3ccccc3)C2=O)c1 (stereo not given),"inconclusive [activator, single point]"
20,Cc1ccccc1-c1ccc(C(=O)Nc2cccc(F)c2)o1,"inconclusive [activator, full curve, poor fit]"
21,COC(=O)N/N=C/c1cc(C)n(-c2ccccc2)c1C,"inconclusive [activator, partial curve, poor fit]"
22,CCOc1cccc(C2c3c(oc4cc(C)c(C)cc4c3=O)C(=O)N2CCCN(C)C)c1 (stereo not given),"inconclusive [activator, single point]"
23,COc1ccc(C(=S)Nc2ccccc2)cc1,"inconclusive [activator, partial curve, poor fit]"

row,Compound,Potency
1,COc1ccc(NC(=O)c2cc([N+](=O)[O-])ccc2O)cc1,inactive
2,Cc1ccc(NC(=O)CSc2nccn2Cc2ccccc2)cc1C,"inconclusive [activator, partial curve, poor fit]"
3,CN1CCc2c(C#N)c(N3CCCCC3)nc(NCc3ccccc3)c2C1,inactive
4,COc1ccc(N2C(=O)Cc3c2nc(N)c(C#N)c3N)cc1,inactive
5,Fc1cc(F)c2nc(Nc3nc4c(F)cccc4s3)sc2c1,"inconclusive [activator, partial curve, poor fit]"
6,O=C(Cn1c(CO)nc2ccccc21)NCCc1ccccc1,"inconclusive [activator, single point]"
7,O=C(c1oc2ccccc2c1N1CCCCC1)N1CCCCC1,inactive
8,COc1cccc(NC(=O)/C=C/c2ccccc2[N+](=O)[O-])c1,"inconclusive [activator, partial curve, poor fit]"
9,Cc1ccc(-n2ncc3c(SCc4ccccc4)ncnc32)cc1,"inconclusive [activator, partial curve, poor fit]"
10,COc1ccccc1NC=C1C(=O)OC(C)(C)OC1=O,inactive
11,CC(=O)c1ccc(Nc2ncnc3c2oc2ccccc23)cc1,"inconclusive [activator, full curve, poor fit]"
12,COc1ccc(-c2cn3cc(C)ccc3n2)cc1Br,"inconclusive [activator, partial curve, poor fit]"
13,Cn1c(C(=O)Nc2ccc3c(c2)OCO3)cc2sccc21,"inconclusive [activator, full curve, poor fit]"
14,CC(=O)c1cccc(-n2nnnc2SCC(=O)N2CCCC2)c1,"inconclusive [activator, partial curve, poor fit]"
15,NC(=O)c1c(NC(=O)C2CCCO2)sc2c1CCCCC2 (stereo not given),"inconclusive [activator, partial curve, poor fit]"
16,COc1cc(NC(=O)CC2NCCNC2=O)cc(OC)c1 (stereo not given),"inconclusive [activator, single point]"
17,CCCCOC(=O)CSC1=C(C#N)C(c2ccccc2OCC)C(C#N)C(=O)N1 (stereo not given),inactive
18,O=C(C1=C(O)C(=O)N(CC2CCCO2)C1c1ccccc1[N+](=O)[O-])c1ccco1 (stereo not given),inactive
19,CCOC(=O)C(C)N1N=C(/C=C/c2ccc(OC)cc2)CCC1=O (stereo not given),inactive
20,O=S(=O)(Nc1nc2ccccc2nc1Cl)c1cccc(C(F)(F)F)c1,"inconclusive [activator, single point]"
21,Cc1ccccc1C(=O)N/N=C/c1ccccn1,"inconclusive [activator, partial curve, poor fit]"
22,O=C(Nc1cccnc1N1CCOCC1)c1cc2ccccc2oc1=O,"inconclusive [activator, partial curve, poor fit]"
